# Measured values: the supplement of paper PMC10037445
# Over roughly 2,900 compounds, “IRF Lucia reporter activity, fold change vs agonist alone” has its median near 0.9; the highest 2% begin near 2.8. This is one part of the list.
# Legend:
# [1] = tested on: RAW-Dual; assay: IRF Lucia reporter activity, fold change vs agonist alone; cytotoxicity flag (confluency mask): not cytotoxic; higher = enhanced IRF activity
# Outline: (§1)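 Reporter activity is given as fold change relative to agonist-alone wells. To measure it, 50 nL of library stock was pin-tooled onto RAW-Dual macrophages (50,000 cells/well, DMEM, 384-well plates), a PRR agonist followed 1 h later, and cells stayed at 37 °C, 5% CO2. Twenty hours on, supernatant was assayed for IRF (QuantiLuc luminescence) and NF-κB (QuantiBlue, 620 nm absorbance), and wells under 70% of agonist-control IncuCyte confluency in both mask sets were marked cytotoxic.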
# [2] = tested on: RAW-Dual; assay: IRF Lucia reporter activity, fold change vs agonist alone; higher = enhanced IRF activity; conditions: library stock concentration (final ~1000-fold dilution): 10 mM, agonist: MPLA (TLR4) […]
# Outline: as §1
# [3] = tested on: RAW-Dual; assay: IRF Lucia reporter activity, fold change vs agonist alone; cytotoxicity flag (confluency mask): cytotoxic (confluency <70% of control); higher = enhanced IRF activity
# Outline: as §1
# [4] = agonist: 3'3'-cGAMP (STING) 10 ug/mL
# [5] = cytotoxicity flag (confluency mask): not cytotoxic
# [6] = cytotoxicity flag (confluency mask): cytotoxic (confluency <70% of control)
smiles,measurement,setting,value
COCCOc1nc(N)c2[nH]c(=O)n(Cc3ccc(C(=O)O)cc3)c2n1 (library stock concentration (final ~1000-fold dilution): 10 mM),IRF Lucia reporter activity,[1]; [4],1.54
same,IRF Lucia reporter activity,[1]; agonist: LPS (TLR4) 0.1 ug/mL,1.06
NC(=O)c1cccc2nc(-c3ccc(C4CCCN4)cc3F)[nH]c12 (stereo not given),IRF Lucia reporter activity,[2]; [5],0.47
NC(=O)c1cccc2nc(-c3ccc(C4CCCN4)cc3F)[nH]c12 (stereo not given) (library stock concentration (final ~1000-fold dilution): 10 mM),IRF Lucia reporter activity,[1]; [4],0.665
same,IRF Lucia reporter activity,[1]; agonist: LPS (TLR4) 0.1 ug/mL,0.339
O=C(O)C1OC(Oc2cc3oc(-c4ccccc4)cc(=O)c3c(O)c2O)C(O)C(O)C1O (stereo not given) (library stock concentration (final ~1000-fold dilution): 10 mM),IRF Lucia reporter activity,[1]; [4],0.96
same,IRF Lucia reporter activity,[1]; agonist: LPS (TLR4) 0.1 ug/mL,0.958
O=C(O)C1OC(Oc2cc3oc(-c4ccccc4)cc(=O)c3c(O)c2O)C(O)C(O)C1O (stereo not given),IRF Lucia reporter activity,[2]; [5],1.03
O=C(CCCN1CCC(O)(c2ccc(Cl)cc2)CC1)c1ccc(F)cc1 (library stock concentration (final ~1000-fold dilution): 10 mM),IRF Lucia reporter activity,[1]; [4],0.769
same,IRF Lucia reporter activity,[1]; agonist: LPS (TLR4) 0.1 ug/mL,1.46
O=C(CCCN1CCC(O)(c2ccc(Cl)cc2)CC1)c1ccc(F)cc1,IRF Lucia reporter activity,[2]; [5],1.27
CC(=O)N1c2ccc(-c3ccc(C(=O)O)cc3)cc2C(Nc2ccc(Cl)cc2)CC1C (stereo not given) (library stock concentration (final ~1000-fold dilution): 10 mM),IRF Lucia reporter activity,[1]; [4],0.259
same,IRF Lucia reporter activity,[1]; agonist: LPS (TLR4) 0.1 ug/mL,0.297
C#Cc1cccc(Nc2ncnc3cc(OCCOC)c(OCCO)cc23)c1.Cl (library stock concentration (final ~1000-fold dilution): 10 mM),IRF Lucia reporter activity,[1]; [4],0.0323
same,IRF Lucia reporter activity,[1]; agonist: LPS (TLR4) 0.1 ug/mL,0.16
C#Cc1cccc(Nc2ncnc3cc(OCCOC)c(OCCO)cc23)c1.Cl,IRF Lucia reporter activity,[2]; [5],0.2
CC1Cc2c([nH]c3ccccc23)C(c2c(F)cc(/C=C/C(=O)O)cc2F)N1CC(C)(C)F (stereo not given) (library stock concentration (final ~1000-fold dilution): 10 mM),IRF Lucia reporter activity,[1]; [4],1.14
same,IRF Lucia reporter activity,[1]; agonist: LPS (TLR4) 0.1 ug/mL,1.23
COc1cc(C=CC(=O)CC(=O)C=Cc2ccc(O)c(OC)c2)ccc1O (library stock concentration (final ~1000-fold dilution): 100 mM),IRF Lucia reporter activity,[1]; [4],0.00934
same,IRF Lucia reporter activity,[1]; agonist: LPS (TLR4) 0.1 ug/mL,0.0106
COc1ccc(CN(CCN(C)C)c2ncccn2)cc1 (library stock concentration (final ~1000-fold dilution): 10 mM),IRF Lucia reporter activity,[1]; [4],0.979
same,IRF Lucia reporter activity,[1]; agonist: LPS (TLR4) 0.1 ug/mL,0.549
COc1ccc(CN(CCN(C)C)c2ncccn2)cc1,IRF Lucia reporter activity,[2]; [5],1.05
Cc1ccc(Sc2ccccc2N2CCNCC2)c(C)c1,IRF Lucia reporter activity,[2]; [6],0.167
Cc1ccc(Sc2ccccc2N2CCNCC2)c(C)c1 (library stock concentration (final ~1000-fold dilution): 10 mM),IRF Lucia reporter activity,[3]; [4],0.317
same,IRF Lucia reporter activity,[3]; agonist: LPS (TLR4) 0.1 ug/mL,0.0341
CS(=O)(=O)O.Cn1cc(C2=C(c3cn(CCCSC(=N)N)c4ccccc34)C(=O)NC2=O)c2ccccc21,IRF Lucia reporter activity,[2]; [6],0.0145
CS(=O)(=O)O.Cn1cc(C2=C(c3cn(CCCSC(=N)N)c4ccccc34)C(=O)NC2=O)c2ccccc21 (library stock concentration (final ~1000-fold dilution): 10 mM),IRF Lucia reporter activity,[3]; [4],0.01
same,IRF Lucia reporter activity,[3]; agonist: LPS (TLR4) 0.1 ug/mL,0.0128
CN1CCC(CNc2ccc3ncc(-c4cccc(OC(F)(F)F)c4)n3n2)CC1,IRF Lucia reporter activity,[2]; [5],1.07
CN1CCC(CNc2ccc3ncc(-c4cccc(OC(F)(F)F)c4)n3n2)CC1 (library stock concentration (final ~1000-fold dilution): 10 mM),IRF Lucia reporter activity,[1]; [4],1.03
same,IRF Lucia reporter activity,[1]; agonist: LPS (TLR4) 0.1 ug/mL,0.089
COc1cccc2c1C(=O)c1c(O)c3c(c(O)c1C2=O)CC(O)(C(=O)CO)CC3OC1CC(N)C(OC2CCCCO2)C(C)O1 (stereo not given) (library stock concentration (final ~1000-fold dilution): 10 mM),IRF Lucia reporter activity,[1]; [4],0.0113
same,IRF Lucia reporter activity,[1]; agonist: LPS (TLR4) 0.1 ug/mL,0.0162
COc1cccc2c1C(=O)c1c(O)c3c(c(O)c1C2=O)CC(O)(C(=O)CO)CC3OC1CC(N)C(OC2CCCCO2)C(C)O1 (stereo not given),IRF Lucia reporter activity,[2]; [5],0.0196
N#C/C(C(=O)c1ccc(Cl)cc1Cl)=C1\NC(=O)c2ccccc2N1 (library stock concentration (final ~1000-fold dilution): 10 mM),IRF Lucia reporter activity,[1]; [4],0.947
same,IRF Lucia reporter activity,[1]; agonist: LPS (TLR4) 0.1 ug/mL,1.16
Cc1ccc(/C(=C\CN2CCCC2)c2ccccn2)cc1.Cl.O,IRF Lucia reporter activity,[2]; [5],1.09
Cc1ccc(/C(=C\CN2CCCC2)c2ccccn2)cc1.Cl.O (library stock concentration (final ~1000-fold dilution): 10 mM),IRF Lucia reporter activity,[1]; [4],0.877
same,IRF Lucia reporter activity,[1]; agonist: LPS (TLR4) 0.1 ug/mL,0.728
NS(=O)(=O)c1ccc(NC(=O)Nc2ccc(F)cc2)cc1 (library stock concentration (final ~1000-fold dilution): 10 mM),IRF Lucia reporter activity,[1]; [4],0.869
same,IRF Lucia reporter activity,[1]; agonist: LPS (TLR4) 0.1 ug/mL,0.995
NS(=O)(=O)c1ccc(NC(=O)Nc2ccc(F)cc2)cc1,IRF Lucia reporter activity,[2]; [5],1.02
CC(Cn1cnc2c(N)ncnc21)OCP(=O)(O)O (stereo not given) (library stock concentration (final ~1000-fold dilution): 10 mM),IRF Lucia reporter activity,[1]; [4],1
same,IRF Lucia reporter activity,[1]; agonist: LPS (TLR4) 0.1 ug/mL,1
